Structures are written as SMILES. Whole data set: some 2,900 compounds, median “NF-kB SEAP reporter activity, fold change vs agonist alone” near 0.99, cut for the highest 2% near 2.6. The list shows a part of the results.

Data on 16 compounds can be found in the supplement of paper PMC10037445.

Experiment [1] deals with RAW-Dual. Description: NF-kB SEAP reporter activity, fold change vs agonist alone; higher = enhanced NF-kB activity. Put shortly:
(§1)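 After 50 nL of library stock was delivered by pin tool to RAW-Dual macrophages (50,000 cells/well, DMEM, 384-well plates), a PRR agonist was added 1 h later and the plates were kept at 37 °C, 5% CO2. Twenty hours later, IRF was read from supernatant by QuantiLuc luminescence and NF-κB by QuantiBlue absorbance at 620 nm. Reporter activity is stated as fold change over agonist-alone wells. Wells with IncuCyte confluency under 70% of agonist controls in both mask sets were counted as cytotoxic.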

The test system of experiment [2] is RAW-Dual. Description: NF-kB SEAP reporter activity, fold change vs agonist alone; cytotoxicity flag (confluency mask): not cytotoxic; higher = enhanced NF-kB activity. In a few lines:
as §1

Experiment [3] relates to RAW-Dual. Description: NF-kB SEAP reporter activity, fold change vs agonist alone; cytotoxicity flag (confluency mask): cytotoxic (confluency <70% of control); higher = enhanced NF-kB activity. In a few lines: as §1
The mark [4] stands for this setting: library stock concentration (final ~1000-fold dilution): 10 mM, cytotoxicity flag (confluency mask): not cytotoxic, agonist: Imiquimod (TLR7) […].
Where [5] appears, read: library stock concentration (final ~1000-fold dilution): 10 mM, cytotoxicity flag (confluency mask): not cytotoxic, agonist: MPLA (TLR4) […].
Where [6] appears, read: agonist: ODN 1826 (TLR9) 0.5 ug/mL.
The mark [7] stands for this setting: agonist: Pam2CSK4 (TLR2/6) 0.1 ug/mL.
Setting [8] is: agonist: Pam3CSK4 (TLR2/1) 0.1 ug/mL.

`CCCCCOc1ccc(-c2cc(-c3ccc(C(=O)NC4CC(O)C(O)NC(=O)C5C(O)C(C)CN5C(=O)C(C(O)CC(N)=O)NC(=O)C(C(O)C(O)c5ccc(O)c(OS(=O)(=O)O)c5)NC(=O)C5CC(O)CN5C(=O)C(C(C)O)NC4=O)cc3)no2)cc1` (centres undefined): the “NF-kB SEAP reporter activity” value in experiment [1] (library stock concentration (final ~1000-fold dilution): 10 mM water, cytotoxicity flag (confluency mask): not cytotoxic, agonist: Imiquimod (TLR7) […]) amounted to 0.949; in experiment [1] (library stock concentration (final ~1000-fold dilution): 10 mM water, cytotoxicity flag (confluency mask): not cytotoxic, agonist: MPLA (TLR4) […]), 1.14.
For the compound `CN1CCN(C(=O)c2cc3cc(Cl)ccc3[nH]2)CC1`, the entries for the “NF-kB SEAP reporter activity” value in experiment [1] (setting [4]) and in experiment [1] (setting [5]) were 1.03 and 0.988, respectively.
Take `CN1CCN(C(=O)c2cc3cc(Cl)ccc3[nH]2)CC1` (library stock concentration (final ~1000-fold dilution): 10 mM): the “NF-kB SEAP reporter activity” value in experiment [2] (agonist: LPS (TLR4) 0.1 ug/mL) is 0.992; in experiment [2] (setting [6]), 0.851; in experiment [2] (setting [7]), 1.01; in experiment [2] (setting [8]), 0.978.
The matching figures for `Brc1ccc2[nH]ccc2c1` (library stock concentration (final ~1000-fold dilution): 10 mM): 1.61, 1.12, 1.18 and 1.11.
Regarding `Brc1ccc2[nH]ccc2c1`, the “NF-kB SEAP reporter activity” value in experiment [1] (setting [5]) was determined as 1.26.
In the case of `COc1ccc(CCC(=O)c2c(O)cc(O[C@@H]3O[C@H](CO)[C@@H](O)[C@H](O)[C@H]3O[C@@H]3O[C@@H](C)[C@H](O)[C@@H](O)[C@H]3O)cc2O)cc1O`, the “NF-kB SEAP reporter activity” value amounted to 0.55 in experiment [1] (setting [4]) and 0.935 in experiment [1] (setting [5]).
On to `COc1ccc(CCC(=O)c2c(O)cc(O[C@@H]3O[C@H](CO)[C@@H](O)[C@H](O)[C@H]3O[C@@H]3O[C@@H](C)[C@H](O)[C@@H](O)[C@H]3O)cc2O)cc1O` (library stock concentration (final ~1000-fold dilution): 10 mM), for which the “NF-kB SEAP reporter activity” value in experiment [2] (agonist: LPS (TLR4) 0.1 ug/mL) stood at 0.951; in experiment [2] (setting [6]) it was 1.05; in experiment [2] (setting [7]), 1.1; in experiment [2] (setting [8]), 1.04.
For the compound `CC(C)(C)CC(C)(C)c1ccc(OCCOCC[N+](C)(C)Cc2ccccc2)cc1` (library stock concentration (final ~1000-fold dilution): 10 mM), the “NF-kB SEAP reporter activity” value in experiment [3] (agonist: LPS (TLR4) 0.1 ug/mL) was determined as 1.95; in experiment [3] (setting [6]), 0.804; in experiment [3] (setting [7]), 0.197; in experiment [3] (setting [8]), 0.384.
As to `CC(C)(C)CC(C)(C)c1ccc(OCCOCC[N+](C)(C)Cc2ccccc2)cc1`, the “NF-kB SEAP reporter activity” value in experiment [1] (library stock concentration (final ~1000-fold dilution): 10 mM, cytotoxicity flag (confluency mask): cytotoxic (confluency <70% of control), agonist: Imiquimod (TLR7) […]) is 1.76; in experiment [1] (library stock concentration (final ~1000-fold dilution): 10 mM, cytotoxicity flag (confluency mask): cytotoxic (confluency <70% of control), agonist: MPLA (TLR4) […]) it was 1.66.
In the case of `O=C(O)c1cc(I)ccc1NC(=O)C(Cc1ccccc1)NCc1ccccc1` (centres undefined) (library stock concentration (final ~1000-fold dilution): 10 mM), the “NF-kB SEAP reporter activity” value in experiment [2] (agonist: LPS (TLR4) 0.1 ug/mL) was 0.888; in experiment [2] (setting [6]), 0.931; in experiment [2] (setting [7]) it was 0.941; in experiment [2] (setting [8]) it was 1.13.
Turning to `O=C(O)c1cc(I)ccc1NC(=O)C(Cc1ccccc1)NCc1ccccc1` (centres undefined), the “NF-kB SEAP reporter activity” value in experiment [1] (setting [4]) is 0.929; in experiment [1] (setting [5]), 1.05.
Consider `COc1ccc(CCC(=O)Nc2nc3ccc(Cl)cc3s2)cc1OC` (library stock concentration (final ~1000-fold dilution): 10 mM), for which the “NF-kB SEAP reporter activity” value in experiment [2] (agonist: LPS (TLR4) 0.1 ug/mL) turned out to be 0.883; in experiment [2] (setting [6]), 0.897; in experiment [2] (setting [7]), 1.01; in experiment [2] (setting [8]) it was 1.37.
Take `COc1ccc(CCC(=O)Nc2nc3ccc(Cl)cc3s2)cc1OC`: the “NF-kB SEAP reporter activity” value amounted to 0.899 in experiment [1] (setting [4]) and 1.1 in experiment [1] (setting [5]).
For `CC(C(=O)Nc1cccc(N=Cc2c(O)ccc3ccccc23)c1)c1ccccc1` (centres undefined) (library stock concentration (final ~1000-fold dilution): 10 mM), in experiment [2] (agonist: LPS (TLR4) 0.1 ug/mL), the “NF-kB SEAP reporter activity” value is 6.64.
Regarding `Cc1cc2c(C(=O)NCC(C)c3ccccc3)c(O)c(O)cc2c(O)c1-c1c(C)cc2c(C(=O)NCC(C)c3ccccc3)c(O)c(O)cc2c1O` (centres undefined) (library stock concentration (final ~1000-fold dilution): 10 mM), the “NF-kB SEAP reporter activity” value in experiment [2] (agonist: LPS (TLR4) 0.1 ug/mL) turned out to be 4.28; in experiment [2] (setting [6]) it was 2.93; in experiment [2] (setting [7]), 0.803; in experiment [2] (setting [8]), 1.62.
For the compound `Cc1cc2c(C(=O)NCC(C)c3ccccc3)c(O)c(O)cc2c(O)c1-c1c(C)cc2c(C(=O)NCC(C)c3ccccc3)c(O)c(O)cc2c1O` (centres undefined), the “NF-kB SEAP reporter activity” value in experiment [1] (setting [4]) is 1.84; in experiment [1] (setting [5]) it was 2.27.
